# Laboratory results as given in PubChem BioAssay (NCATS).
# Inconclusive results, whose numbers are uncertain, are shown with a selection of clear calls. Potencies of inconclusive entries are left out as doubtful fits. Active and inactive are the calls of the source. Calls follow the shape of the dose curve; as a rule, active = well fitted curve in the direction sought with a large enough effect in the repeat runs; inconclusive = weak or mixed curves; inactive = no such curve, though single readings can be large; an effect the other way counts as inactive or inconclusive.
# Molecular target: Cytochrome P450 2D6 (Homo sapiens) (UniProt P10635)
# Chain of UniProt P10635 (P10635 whole entry, looked up): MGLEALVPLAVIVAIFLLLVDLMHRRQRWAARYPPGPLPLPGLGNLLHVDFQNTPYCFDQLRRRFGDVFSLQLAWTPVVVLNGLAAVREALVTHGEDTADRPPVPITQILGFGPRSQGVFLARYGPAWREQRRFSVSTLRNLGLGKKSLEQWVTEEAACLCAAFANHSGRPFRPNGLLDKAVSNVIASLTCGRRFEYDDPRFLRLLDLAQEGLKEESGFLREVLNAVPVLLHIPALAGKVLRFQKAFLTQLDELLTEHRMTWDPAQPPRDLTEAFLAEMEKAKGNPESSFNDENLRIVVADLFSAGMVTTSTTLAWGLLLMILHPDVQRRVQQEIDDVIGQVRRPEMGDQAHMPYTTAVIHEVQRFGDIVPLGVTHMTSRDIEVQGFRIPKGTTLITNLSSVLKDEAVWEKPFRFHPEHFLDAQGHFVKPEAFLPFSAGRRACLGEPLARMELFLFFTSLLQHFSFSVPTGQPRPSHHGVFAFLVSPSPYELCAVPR
# Assay: Cytochrome P450 family 2 subfamily D member 6 (CYP2D6) small molecule antagonists: luciferase biochemical (cell-free) qHTS assay (AID 1645840)
# Settings: P450-Glo CYP2D6 enzyme, luciferin luminescence, 1 h; series mostly up to 57.4 µM
# Outline: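 P450-Glo luminescent screen: recombinant CYP2D6 enzyme–proluciferin substrate mix preincubated with compound 10 min at room temperature, then NADPH regeneration added for 1 h at room temperature. Detection reagent added for 20 min; luciferin light read as relative luminescence units.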
# Also: nearly all actives have a fitted effect of over 55% in size.
# Potency is read from the fitted curve at half-maximal effect; tags tell the direction and shape of the fitted curve.
row,SMILES,Potency
1,COc1cc(Nc2ncc3c(n2)-c2ccc(Cl)cc2C(c2c(F)cccc2OC)=NC3)ccc1C(=O)O,"inconclusive [inhibitor, single point]"
2,Cc1c(C(=O)NN2CCCCC2)nn(-c2ccc(Cl)cc2Cl)c1-c1ccc(Cl)cc1,"inconclusive [inhibitor, partial curve, poor fit]"
3,COc1cc2c(cc1OC)CN(CCc1ccc(NC(=O)c3cccc4c(=O)c5cccc(OC)c5[nH]c34)cc1)CC2,"inconclusive [inhibitor, single point]"
4,Cc1csc(-c2nnc(Nc3ccc(Oc4ncccc4-c4ccnc(N)n4)cc3)c3ccccc23)c1,inactive
5,C[C@@H]1CC(=O)NN=C1c1ccc(NN=C(C#N)C#N)cc1,inactive
6,CC1=NN(c2ccccc2)C(=O)C1,"inconclusive [inhibitor, single point]"
7,COc1ccccc1-c1cccc(-c2c(O)c3cc(C#N)c(Cl)cc3[nH]c2=O)c1,"inconclusive [inhibitor, single point]"
8,COCCCOc1ccnc(CS(=O)c2nc3ccccc3[nH]2)c1C (configuration not stated),"inconclusive [inhibitor, single point]"

# Molecular target: Cytochrome P450 2C9 (Homo sapiens) (UniProt P11712)
# Chain of UniProt P11712 (P11712 whole entry, looked up): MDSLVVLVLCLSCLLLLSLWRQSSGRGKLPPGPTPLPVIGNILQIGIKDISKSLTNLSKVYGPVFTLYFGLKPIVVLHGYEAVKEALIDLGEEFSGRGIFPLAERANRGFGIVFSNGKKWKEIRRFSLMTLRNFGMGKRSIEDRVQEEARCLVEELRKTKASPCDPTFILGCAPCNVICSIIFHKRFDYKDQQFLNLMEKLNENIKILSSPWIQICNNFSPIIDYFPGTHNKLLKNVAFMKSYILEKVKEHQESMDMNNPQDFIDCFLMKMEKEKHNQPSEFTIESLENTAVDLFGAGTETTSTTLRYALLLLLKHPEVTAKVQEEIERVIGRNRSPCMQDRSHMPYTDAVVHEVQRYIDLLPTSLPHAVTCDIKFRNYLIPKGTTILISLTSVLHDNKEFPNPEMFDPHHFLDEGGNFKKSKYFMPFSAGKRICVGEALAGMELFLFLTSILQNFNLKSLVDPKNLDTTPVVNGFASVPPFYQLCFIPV
# Assay: Cytochrome P450 family 2 subfamily C member 9 (CYP2C9) small molecule antagonists: luciferase biochemical (cell-free) qHTS assay (AID 1645842)
# Settings: P450-Glo CYP2C9 enzyme assay, luciferin luminescence; series mostly up to 57.4 µM
# Outline: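 Luminescence, after 20 min with luciferin detection reagent, reflected CYP2C9 turnover during a 1 h NADPH-driven reaction at 37C. Enzyme-substrate mix contained 0.4% bovine serum albumin and was preincubated with compound 10 min at room temperature.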
row,SMILES,Potency
1,Nc1ccn(C2CO[C@H](CO)O2)c(=O)n1 (some centres not stated),inactive
2,COc1cc2ncnc(Nc3cc(Br)c(O)c(Br)c3)c2cc1OC,"inconclusive [inhibitor, full curve]"
3,Cc1csc(-c2nnc(Nc3ccc(Oc4ncccc4-c4ccnc(N)n4)cc3)c3ccccc23)c1,active: 12 µM
4,CC1=NN(c2ccccc2)C(=O)C1,"inconclusive [inhibitor, single point]"
